# Read counts are not given, so values of variants with three or more changes are uncertain.
# B1: LINE1-mini (parent)
# chain: GGCAGAGCUCAACACAGCGUGGCAAAGUGGCUGUGGCUAGACUGCC
# Variants of: B1
# Assay: self-cleavage, relative activity (ratio to wild type); higher = more cleavage; in vitro, sequencing; the parent is a self-cleaving ribozyme
row,Variant,self-cleavage
1,G2U G5U A25U C45U,0.04
2,G7C G19U G22U A39C,0.03
3,C10A C13U G21U G29C U32C C42U U43A,0
4,C3G U9C A11G G19C U20A G36U,0.01
5,G1U G5U A25U U28C,0.13
6,G27C U34G G35C,0.01
7,G19A G29A U32G,0.68
8,U20G G27U U32G,0.02
9,G1A A6U G33U G44U C45A,0.1
10,U9G U43C G44A,0.06
11,C10U G17U G30A G36C C46U,0
12,G5U A12G A14C G17C G19U G30U A41U,0.01
13,C10U A11G G22A C37G,0.01
14,A24G A25U G27A,2.76
15,A6G G22A C23G,0.06
16,A4U G7U C13U G29A C45G,0.52
17,C10A G44A C45A,0.05
18,G21U U32G C37A,0.03
19,G7U A12C A14U G22A G35A,0.04
20,A16G G19C C42G,0.02
21,G1U C8U C10G C13U G21U,0.02
22,G21U G30U C31A G40U G44A,0.06
23,U9C G35U U38A,0.03
24,C10G A25C C31U A39U,0.01

row,Variant,self-cleavage
1,G1A G7A G29U U34C C42G,0.09
2,G1C C13U U20A G27A,0.03
3,G7A U9G C10A U32A,0.01
4,G21U G27U G36C U38G,0.04
5,G2U G7U C31A G40C,0.06
6,G2C A12C C18A G27U U34G,0.01
7,C13A G19U G29A C31U U32C,0.06
8,A14C U20C A25G G30C C31A C42U,0.01
9,C13G G21A C23A C45A C46A,0.11
10,U9A A16U C23A G30U A41C,0.03
11,C10U A25C G29C U34C A39G,0.02
12,A12G C18A G35A A41U C45A,0
13,A11U U20C G29C C46A,0.06
14,A24C U38G C46G,0.03
15,A24C U38A U43G,0
16,C10A U34A C46A,0.18
17,G17C U34C C37U G44A,0.03
18,C3U A4U A26U G29A,0.13
19,A11C A12G C13G G19C C37U A39U A41G,0.01
20,A4G U9A A14C A25C G36C,0.05
21,G1U G27A C31G,0.07
22,C15U G29A G40A U43A,0.12
23,G27U U28G U34A G35C,0.06
24,G1U G17U C46G,0.05

row,Variant,self-cleavage
1,C8A C18G A26C G36C C37A G40U,0.19
2,C3A G5C U28C A41C,0.05
3,A4C U9A G30U C42U,0.19
4,G19A C23A A25C G33A A41G,0.05
5,A24U G36A C42U,0.33
6,C8G U20A G22C A41U,0.07
7,G2U C23A U28A,0.08
8,C3G G17U C18A G30C,0.65
9,A12C G19A C23G G30C,0.01
10,A14G G21U C37G,0.03
11,C3U A4C G36A,0.59
12,A6G A12C G22U G40C,0.01
13,G7C U9A C10G U20C C45U,0.02
14,A6U G7U C31A U32C U34A,0.11
15,A14C G21U C23U U28A,0.05
16,C15U C18G A25G,0.03
17,G2C U9C U32G,0.04
18,G2U G22A A25U U28C C37G,0.04
19,C3U C10U G30C U34A,0.07
20,U9C C10A U38C,0.01
21,U20C C37U G40U,0.06
22,G19C G30C A41U,0.32
23,A14C G19C U38A,0.01
24,A14G G22A A24C G27U G30A G35C A41G C46A,0.45

row,Variant,self-cleavage
1,G5U A6C G7C U20A G29A U38A A39U G44A,0.11
2,C13G A41C C46G,0.09
3,G1C C10A U20G,0
4,G21U G33A C42A,0.11
5,G2U A11G A24C G27U G36C,0.01
6,C3G G17U G30A U32A C37A,0.17
7,C13G G29U A39G,0.27
8,A4U U20A G40A,0.03
9,C15U G19C U20A G21A,0.25
10,G21U A24C U32G,0.09
11,A4G G21U A26G,0.3
12,C3U C10A G17C C46U,0.02
13,G17U G21A U28A G36A C37A,0.04
14,G2U A12U G21U,0.04
15,C23A A25U A26U C42A,0.02
16,U34A C45A C46U,0.07
17,U20G G29U C31A G40A,0.03
18,C3U U32G G36A C42U,0.05
19,C3A C8G A24G G40A,0.04
20,C8A U34G C42A,0.3
21,C3U G5U G22U,0.07
22,C8A A11G A12C A14C G27U,0.01
23,G36A G44A C45A,0.03
24,C3G G5U G21A G27U,0.25

row,Variant,self-cleavage
1,G1C A6G C23G U32C C42U,0
2,A6U G7C C31U C45A,0.02
3,G2A U32G C42G,0.04
4,G7A C13U C37U G44C,0.36
5,G2U C3U G5A U9C C31U G36U,0.02
6,C3G G5C A24G,0.05
7,A4U U9C A11G G29U,0.03
8,G21U U34A C46A,0.08
9,G7A C8A C10A U43C,0.02
10,U9G C13U U20A G30A,0.14
11,G2A A11U G19A G27A C45A,0.09
12,C8A G17C A24U U34G,0.08
13,A25U G29U C46A,0.92
14,G17C U32A G33C G44C,0.02
15,C3U G5A G21U U32A,0.04
16,A12G U28C U32A G36C U38G,0
17,C10U C15A A41C,0.01
18,G1A A14G C46G,1.07
19,U9G C13A G21U G35C,0.03
20,A12U G27A C31A,0.05
21,G19U G27A C31U G36C,0.02
22,G2C A4C A24U G30C,0.08
23,C8G U9G C31U U32G,0.02
24,G1C A16G G17A,0.01

row,Variant,self-cleavage
1,C3U G33A G35U C37U,0.12
2,C15A A24G G35U,0.07
3,A11G C31G G33C,0.01
4,G21A G22C U32A G44C,0.06
5,G5U G21A G35U C37A,0.04
6,C10G A14U G21A U32A C45U,0
7,A14U G22C G29C,0.39
8,A6U C8G G19C U38C,0.01
9,A12U U34A G36U C37A,0
10,C13A C37A G40A,0.38
11,U9C C10U G17A U20A C31A,0.01
12,C18U U20C C31U,0.12
13,G7A C18A U38A,0.21
14,U9A C13G A24U G30A G35A,0.04
15,G5A U32G G33C C37A A39U,0.02
16,A4C C15U G22U C37U A41U,0.09
17,G2U G22A C31A C37A G44U,0.11
18,G19A U20G A25G,0.34
19,C3A U28A G35U G36U,0.22
20,C15G U20A G29C,0.38
21,C3A C10U A24U U28C G35A,0.08
22,G5C C18A U20C G29A U38A,0.04
23,C3U G7U A16G G33A G36A,0.04
24,C8U C31A G40A,0.01

row,Variant,self-cleavage
1,C18A A25G G35A A41G,0
2,G29U U38C G40U,0.05
3,A24C C37U C42A,0.08
4,C8A C15U U38C,0.06
5,G17C G22U A39G,0.28
6,A4G C15U C42A U43A,0.05
7,A6G C23G C37G,0.01
8,G7C C8A G17U U38C A39C C45U,0.28
9,C13A C18A G22A C31U A41U,0.01
10,U20A G21U C45G,0.28
11,C3G C8A U43G,0.22
12,C10G G21U G36C C37U C42U,0.01
13,C15A A41C C42G,0
14,G7A G27C U32G G44U,0.05
15,A24C C42A C45A,0.04
16,C15A A16G C31U,0.02
17,G19C C37U G40U,0.08
18,C10G A39C C45A,0.04
19,A4C G22A G44C,0.05
20,G22A G33C C42A C46U,0.03
21,C31A U34C U38G,0
22,A6G C18A C31U,0
23,C15A G29C C31U A41C,0.03

# — the RNAGym collection of RNA variant scans (doi:10.7554/elife.90254)
